Experimental findings from the supplement of paper PMC11876631 are described below.

First the molecules themselves.
B1: tyrS F271Q (protein)
chain: MASSNLIKQLQERGLVAQVTDEEALAERLAQGPIALYCGFDPTADSLHLGHLVPLLCLKRFQQAGHKPVALVGGATGLIGDPSFKAAERKLNTEETVQEWVDKIRKQVAPFLDFDCGENSAIAANNYDWFGNMNVLTFLRDIGKHFSVNQMINKEAVKQRLNREDQGISFTEFSYNLLQGYDFACLNKQYGVVLQIGGSDQWGNITSGIDLTRRLHQNQVFGLTVPLITKADGTKFGKTEGGAVWLDPKKTSPYKFYQFWINTADADVYRQLKFFTFMSIEEINALEEEDKNSGKAPRAQYVLAEQVTRLVHGEEGLQAAKRITECLFSGSLSALSEADFEQLAQDGVPMVEMEKGADLMQALVDSELQPSRGQARKTIASNAITINGEKQSDPEYFFKEEDRLFGRFTLLRRGKKNYCLICWK
B2: tyrS W260Q (protein)
chain: B1 chain with W260Q, Q271F
B3: tyrS V108A (protein)
chain: B1 chain with V108A, Q271F
B4: tyrS V108P (protein)
chain: B1 chain with V108P, Q271F
B5: tyrS V108Q (protein)
chain: B1 chain with V108Q, Q271F
B6: tyrS V108W (protein)
chain: B1 chain with V108W, Q271F
B7: carA L209P (protein)
chain: MIKSALLVLEDGTQFHGRAIGATGSAVGEVVFNTSMTGYQEILTDPSYSRQIVTLTYPHIGNVGTNDADEESSQVHAQGLVIRDLPLIASNFRNTEDLSSYLKRHNIVAIADIDTRKLTRLLREKGAQNGCIIAGDNPDAALALEKARAFPGLNGMDLAKEVTTAEAYSWTQGSWTLTGGLPEAKKEDELPFHVVAYDFGAKRNILRMPVDRGCRLTIVPAQTSAEDVLKMNPDGIFLSNGPGDPAPCDYAITAIQKFLETDIPVFGICLGHQLLALASGAKTVKMKFGHHGGNHPVKDVEKNVVMITAQNHGFAVDEATLPANLRVTHKSLFDGTLQGIHRTDKPAFSFQGHPEASPGPHDAAPLFDHFIELIEQYRKTAK
B8: carA F266W (protein)
chain: B7 chain with P209L, F266W
B9: carA L206A (protein)
chain: B7 chain with L206A, P209L
B10: carA L206W (protein)
chain: B7 chain with L206W, P209L
B11: carA F266A (protein)
chain: B7 chain with P209L, F266A
B12: carA F266D (protein)
chain: B7 chain with P209L, F266D

Changes are numbered by the printed parent chain. Names and notes keep the numbering of the source. ± gives the standard deviation of the averaged measurements. Laboratory Escherichia coli strains with one amino-acid change in an essential protein, pooled on minimal glucose agar with carbenicillin or gentamicin at twice the control MIC (plus kanamycin and chloramphenicol for the plasmids), 48 h. Fold change of barcode share against drug-free plates; higher = less susceptible. Active = above 20 in both replicates (the paper's putatively resistant). '<' = one read or none on drug, '>' = one read or none on a drug-free plate. Shares are relative, so most strains fall below 1 when a few take over. Listed are strains with at least 15 reads on both drug-free plates, and hits; most hits rest on fewer reference reads. Replicate rank correlation about 0.5. Edits are read from barcodes.

For one data set, the target named is Escherichia coli (laboratory strain). The data set can be described thus: barcode share on antibiotic plates over drug-free plates; higher = less susceptible. The note with it: antibiotic: carbenicillin; 2× MIC (3.1 µg/mL). The method, then:
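A pool of E. coli strains, each edited to carry one amino-acid change in an essential protein, was grown for 48 h on minimal glucose agar with or without antibiotic; strain barcodes were sequenced; mean of two replicates.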
As for B1, the “fold change of barcode share” value was 0.259 ± 0.13.

Turning to B2, the “fold change of barcode share” value stood at 0.345 ± 0.27.

Consider B3, for which the “fold change of barcode share” value amounted to 0.47 ± 0.1.

Turning to B4, the “fold change of barcode share” value was determined as 0.167 ± 0.025.

As for B5, the “fold change of barcode share” value was determined as 0.209 ± 0.059.

B6: the “fold change of barcode share” value came to 0.261 ± 0.018.

Consider B7, for which the “fold change of barcode share” value stood at 0.4 ± 0.1.

As to B8, the “fold change of barcode share” value came to 0.258 ± 0.091.

Take B9: the “fold change of barcode share” value stood at 0.626 ± 0.11.

For the protein B10, the “fold change of barcode share” value was determined as 0.715 ± 0.36.

As to B11, the “fold change of barcode share” value was found to be 0.345 ± 0.27.

Turning to B12, the “fold change of barcode share” value is 0.236 ± 0.0085.

The same data set, now with this note: antibiotic: gentamicin; 2× MIC (MIC 0.45 µg/mL).
Consider B2, for which the “fold change of barcode share” value is below 0.00873.

Turning to B3, the “fold change of barcode share” value is below 0.0125.

B4: the “fold change of barcode share” value was found to be 0.0186 ± 0.0029.

For the protein B5, the “fold change of barcode share” value was 0.0365 ± 0.031.

For the protein B6, the “fold change of barcode share” value worked out at 0.0127 ± 0.0066.

B7: the “fold change of barcode share” value worked out at 0.0193 ± 0.0023.

With B8, the “fold change of barcode share” value worked out at 0.0183 ± 0.016.

In the case of B9, the “fold change of barcode share” value stood at 0.00606 ± 0.0023.

For the protein B10, the “fold change of barcode share” value came out at 0.0203 ± 0.0073.
